# Measurements taken from the supplement of paper PMC11417369.
# ± gives the standard deviation of the averaged measurements. The list shows a part of the results.
# Test system: PfAP2-G AP2 domain (GST-tagged)
# Experiment: gcPBM binding intensity (ln(normalized median fluorescence intensity)); higher = stronger DNA binding
# Procedure, shortened: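 GST-tagged P. falciparum DNA-binding domains, expressed in E. coli (about 25 μg on average), were applied for 1 h to an Agilent 4 × 180k array of primer-extended double-stranded 36-bp intergenic genomic probes plus negative controls. The binding buffer was 1× PBS with 1% milk, 0.2 mg/ml BSA, 0.5% salmon testes DNA and 0.03% Triton X-100. Bound protein was detected with Alexa488 anti-GST antibody and scanned at 488 nm. Binding intensity is the highest Masliner-normalised natural-log median intensity across replicate spots of either probe orientation.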
row,Sequence,gcPBM binding intensity (ln)
1,ATATTATATATATGTGCACACAAAAGATATATATAT [CACACA_site2125],10.5 ± 0.38
2,AGTTAATGTTTATGTACACACGGTGGGTATATATTT [CACACA_site5785],11.3 ± 0.76
3,ATCAAGCACGGACACACACACACACCCAGACCCCCA [CACACA_site4360],11.2 ± 0.83
4,AAGTTAACACAACAGGTGCAAGAAAAGTTTTTAATG,10.1 ± 0.14
5,TCTTTAATATATAGTGCATGTAAATTTTACAATAAT [TGCATGCA_site242],10.2 ± 0.28
6,TATGGTATATACAACACACACACATATGTATATATA [CACACA_site927],10.1 ± 0.22
7,AATAATAATAATAATAGTACATATTATGAATATGAT [XGTACX_site5730],10.8 ± 0.69
8,ATAATAAGGTTAAGCACACATATTACAGATATAACT [CACACA_site5791],10 ± 0.18
9,AAATATTATGTGGCAAGTACATAAAGAAAATGCTTA [XGTACX_site3356],11.2 ± 0.84
10,TAATTTTTGAAACACACACACATATATATATATATA [CACACA_site94],10.1 ± 0.32
11,GATCTACATGAAAGGACACACAAATATATATATATA [CACACA_site84],10.8 ± 0.65
12,ATAAATATGGAGCACACACACATAAACATACCTATA [CACACA_site6336],10.4 ± 0.16
13,TTAAAAATGATTGAATGTACAGATTAATATAATTTT [XGTACX_site7394],10.7 ± 0.28
14,GTAGAGGATTAAGAATGTACACATAAATACATATTT [XGTACX_site8874],11.2 ± 0.41
15,AATTATACATACATATATATATTTATATATATATAT [GTGCAC_negctrl_site462],9.69 ± 0.11
16,GTTACATACAGATACACACACATATATATATATATA [CACACA_site4652],10.3 ± 0.41
17,TTTTTTTTTTTTTGTGCATGTAGATTTATTGTTATA [TGCATGCA_site582],9.88 ± 0.56
18,TTTAAATATATATTTAGTACTTATTCTTAAAATTTT [XGTACX_site624],10.9 ± 0.73
19,AAAAAAGAATAGCACACACACATATATAAATATAAA [CACACA_site4518],10 ± 0.18
20,ATTAAAAAAAAAAGTATACACACTTCTTAATGTCAA [CACACA_site1244],10.2 ± 0.11
21,TTATATCCCGTCCTTTATTAAAAAAATTTTTTTTCT [TGCATGCA_negctrl_site582],10.4 ± 0.21
22,ATGGGTTGTTCAAATAGTACATATGTAGCCCACCAT [XGTACX_site3735],11.4 ± 0.9

row,Sequence,gcPBM binding intensity (ln)
1,AAAAAAAAATATATATAAAATTAAAAAATGTAATAT [GTGCAC_negctrl_site581],9.48 ± 0.31
2,AACAAATAAACAAAATTGGAAAATAAAAATATCAAA [CACACA_negctrl_site1125],9.64 ± 0.2
3,TCGTATATGGATTTTGCACACAATTTTAATTTAAAT [CACACA_site4635],10.15 ± 0.071
4,ATGATTTGTCTGAAATGTACATATATATATATATAT [XGTACX_site5247],10.9 ± 0.53
5,TTTTTTTTTTTTTTAATTAATTACCTTTGAATGTGT [CACACA_negctrl_site393],9.88 ± 0.42
6,TAATAATTTTATAAAGTGCATAAAAATAAAAATTTT,9.93 ± 0.042
7,ATATATATGGATGGACGTACGTATGTATGTAATTTC [XGTACX_site4135],11.3 ± 0.64
8,TTCCAACATTGTTTTTGTACATAATTAACTGTTATT [XGTACX_site5224],11 ± 0.4
9,CTTAAAAATAACTGCACACAAAAATAAATACCTTAT [CACACA_site2793],10.15 ± 0.014
10,TAATATTTATAAAATAGTACACAGAAAAAGCATTTT [XGTACX_site8948],11.4 ± 0.88
11,ATTATTTTTTTATGTTGTACATAATATTTTTTAAAA [XGTACX_site1666],11.3 ± 0.87
12,GAAAAAATATATAAATGTACATATAATAATATCATA [XGTACX_site6788],11 ± 0.52
13,ATATATATTTTATTATGTACATATAAATATTACACA [XGTACX_site4062],11.3 ± 0.7
14,AAAAAAATATATATTACACACATATATACCTATATA [CACACA_site5688],9.98 ± 0.22
15,ATATATATTAATAGGTGTACATATAAAGTGTTATGT [XGTACX_site5464],11.4 ± 0.71
16,ATATTTAATGTTAATTGTACATATTATATATATATA [XGTACX_site6095],11.1 ± 0.55
17,GATTATACAAAATATACACACGTGTAGACAAATATT [CACACA_site4785],10.3 ± 0.23
18,ATAATATTATTATAATGTACATATTTCGATATAAAT [XGTACX_site8808],11.2 ± 0.63
19,TATATATAAGCGTGTACACATTCTGAGTGTTGTATA [CACACA_site4502],11.7 ± 1.1
20,AAAAAAAAATTTTTAAAATTTAGAAAATTTAAAAAA [GTGCAC_negctrl_site649],9.465 ± 0.007
21,TAATAATGCAACCTCTGTACACAACATTATATCCAT [XGTACX_site7596],11.3 ± 0.77
22,TGTGTAATTATATATAAGGAGAAAGAATTCATTTTT [CACACA_negctrl_site670],9.78 ± 0.057

row,Sequence,gcPBM binding intensity (ln)
1,ATTGTCTTCTCATATACACACTTTTATGACTATCTT [CACACA_site5696],10.035 ± 0.007
2,AAATGCCATATAATTTTTCTTAAACATAATTGTATA [CACACA_negctrl_site1665],9.44 ± 0.32
3,ACAAAAAATAATCAAAATGTATATATATAATATAAT [XGTACX_negctrl_site593],9.84 ± 0.099
4,TATTGAAGTTATAAAGTGCAGATAAATATGAGTTAT [GTGCAC_site9945],10.2 ± 0.17
5,ATTATCCATGCATTTACACACACACCCAAAAAAATT [CACACA_site4101],10.3 ± 0.28
6,AAAGGGGCATATATATGTACATATTATATATTTTGA [XGTACX_site2436],11.1 ± 0.67
7,CCATAAAAAGGATACACACACACACCCACATATATA [CACACA_site903],10.3 ± 0.26
8,TGTTTTTATATATATGCACACAATGTACAAGTATAC [CACACA_site3529],11.2 ± 0.83
9,AATACATTGTCAAATTGTACAAATTATAGAACTATT [XGTACX_site2222],10.7 ± 0.36
10,TAATTTTTAATTGTAGCATGCAGTATTTTTAAATAT [TGCATGCA_site140],9.96 ± 0.26
11,TTATATATAAACATAAAAAGAAATATATTATGTATA [CACACA_negctrl_site667],9.47 ± 0.15
12,TATGTGAATATAATCACACACAATACGGAAACCCAC [CACACA_site2725],10.6 ± 0.31
13,AAAGTCTCATTAAAATGTACAAAATTTTCAGCTGTA [XGTACX_site6296],10.5 ± 0.36
14,ATATATATATATATATGTACATATAATTTTTTTTTT [XGTACX_site6948],11.1 ± 0.67
15,TTTATATTAATTTGTGTAAATGCATATGATGAGCAT [XGTACX_negctrl_site254],9.95 ± 0.2
16,AATGGCAAAATAGGCACACACACATATACAGATATA [CACACA_site4726],10.1 ± 0.14
17,TAAATTTTTTTTTTGATGCACTTAGTTATTATATTT,9.88 ± 0.099
18,ATAACAATTATTTATCTACACACTTTTATGTTATTT [CACACA_site7886],9.94 ± 0.22
19,ATTAAGTCTTATATTACACACGACATTGTAATGTAA [CACACA_site528],9.85 ± 0.11
20,ATTCCACTGTTTTAGTGTACTGGTCGTTTTTTTTTT [XGTACX_site1738],11.5 ± 0.68
21,AATTTTTTATACACAAGTACAAACGCGTAGTCACTT [XGTACX_site2458],11.1 ± 0.73
22,AAAAATAAAACAATTACACACATAATTTTATTTTTA [CACACA_site928],9.62 ± 0.21

row,Sequence,gcPBM binding intensity (ln)
1,TCCAAAATATCCTTCACACACGAACAGTTTCATTTA [CACACA_site5511],10.1 ± 0.19
2,CTGTTAATTATATATTGTACAAAAGATATGATTATA [XGTACX_site6927],10.8 ± 0.42
3,GAATTTTTGACGATATAGGAAATAATTATCCTGAAG [XGTACX_negctrl_site61],9.985 ± 0.092
4,AAATAAAGAATATAAATACACACTTAAATATATATT [CACACA_site4007],9.79 ± 0.085
5,TGGACCAAACGACAAAAAAAAAGCAGAAAACAAAAA [GTGCAC_negctrl_site693],10.145 ± 0.007
6,ATTTATATATTTATATGTACATATCTATACATATAT [XGTACX_site7580],11.2 ± 0.67
7,TTTTTAAAAAAAAAAAAATAAAAAAAAAAAAAATAT [XGTACX_negctrl_site7],9.77 ± 0.28
8,ATAATAAAATAAATCACACATAATATAATGTAATAT [CACACA_site6144],9.81 ± 0.11
9,ACAAAAAAATAAAATATATATATATATATAATATAT [CACACA_negctrl_site805],9.6 ± 0.24
10,TATACACATTCGCGTTGTACAAAAAAAAAAAAAAAG [XGTACX_site2880],11.1 ± 0.64
11,AATAAAGGAGCCTATGAACACACACCGGTACATATA [CACACA_site9352],10.8 ± 0.34
12,ATATATATATATATATGTACATATTTACATTTTGTA [XGTACX_site3529],11.1 ± 0.54
13,ATAAAAAAAAGAAAAACACACACATATATATATATA [CACACA_site8243],10 ± 0.64
14,ATAATAATAGTAATATGTACATATATATATATATAT [XGTACX_site7437],11.2 ± 0.45
15,ATCAACATTATGTTTAGTACTTAGTGAATTGTTAAT [XGTACX_site4913],10.6 ± 0.31
16,AAGATGAACCTTTACACATGCAACAAAAAATATACA [TGCATGCA_site166],10.1 ± 0.11
17,ATTCTCCATGTTTGATGTACTCATATGACGACGGAG [XGTACX_site4923],11.4 ± 0.77
18,TTCTTATATTGTACAGTACACACCTTTATAATGTTA [CACACA_site7953],11.4 ± 0.81
19,ATATAAATAACGTGTACACACATATGTATTTATATA [CACACA_site6520],11.6 ± 0.89
20,TTCTAAATTAATAATACACACTTGCTAAAATCATTA [CACACA_site5733],9.805 ± 0.078
21,TTTATTTTATCATTTGCACACGCACCCCCACATAAA [CACACA_site8007],11.2 ± 0.77
22,AATACTTACCAAAATACACACACACCCAAAATATAT [CACACA_site8559],10.4 ± 0.29
